115 sequences from the BET-seq Pho4 binding data (Le et al. 2018) can be followed below.

The list shows a part of the results. Values were computed here from the reads of four pooled replicates and scatter widely.

The target in this assay is T1, Pho4 (S. cerevisiae) (UniProt P07270).
T1 sequence: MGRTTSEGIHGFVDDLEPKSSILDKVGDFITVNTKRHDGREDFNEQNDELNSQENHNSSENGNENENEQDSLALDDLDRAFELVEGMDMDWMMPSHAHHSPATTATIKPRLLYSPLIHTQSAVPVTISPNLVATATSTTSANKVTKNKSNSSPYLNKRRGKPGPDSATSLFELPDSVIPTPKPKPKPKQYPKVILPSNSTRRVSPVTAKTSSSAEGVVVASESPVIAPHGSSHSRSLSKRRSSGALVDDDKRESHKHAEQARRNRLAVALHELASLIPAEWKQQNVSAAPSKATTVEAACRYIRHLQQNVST
Description: relative binding free energy (BET-seq); higher = weaker binding. The note with it: reference: library average.
Regarding CAATTCACGTGCGGTT, the “relative binding free energy” value was found to be 0.37 kcal/mol.

Consider GGACACACGTGTTGTA, for which the “relative binding free energy” value stood at 0.19 kcal/mol. The same measure for CCTAGCACGTGTGTGT: 0 kcal/mol. The result for TAGTTCACGTGGATAT reads 0.24 kcal/mol; that for TGTTCCACGTGGTAGT, -0.08 kcal/mol. With ATGCACACGTGTAGTT, the “relative binding free energy” value stood at 0.01 kcal/mol.

Consider AGCTACACGTGGTGTT, for which the “relative binding free energy” value is -0.05 kcal/mol. The same measure for TAGTACACGTGAGGCT: 0.19 kcal/mol; for CTTATCACGTGTAAGT: 0.14 kcal/mol; for ATTTACACGTGGTATC: 0.1 kcal/mol. The same measure for GTTCGCACGTGTTGGG: 0.1 kcal/mol; for CTTAGCACGTGGTGAT: -0.18 kcal/mol. As for GAGGGCACGTGGGTGG, the “relative binding free energy” value is -0.19 kcal/mol.

Take CGTGTCACGTGATTCT: the “relative binding free energy” value is 0.21 kcal/mol. In the case of ATTTGCACGTGAAAGA, the “relative binding free energy” value stood at 0.31 kcal/mol. Regarding TTTGCCACGTGGTGCT, the “relative binding free energy” value was -0.14 kcal/mol. The same measure for TTATTCACGTGAAAAG: 0.32 kcal/mol; for AAGTGCACGTGTCAAG: 0.07 kcal/mol. The result for ATGTTCACGTGCAAGT reads 0.24 kcal/mol; that for GATATCACGTGTGGGA, 0.2 kcal/mol; that for TGCTACACGTGGATGG, 0.13 kcal/mol. The same measure for TTTTGCACGTGTGGAC: 0.16 kcal/mol.

Turning to GAAGTCACGTGAAGGG, the “relative binding free energy” value was found to be 0.31 kcal/mol.

Regarding AACGGCACGTGTTGGT, the “relative binding free energy” value was -0.08 kcal/mol. The result for TTTGTCACGTGCGTTA reads -0.02 kcal/mol; that for AGCGGCACGTGAGTTG, 0.09 kcal/mol. Take CTTGACACGTGATTTG: the “relative binding free energy” value was 0.07 kcal/mol.

GTGTACACGTGGGTCT: the “relative binding free energy” value was -0.08 kcal/mol. The result for CTGGGCACGTGTGGCA reads -0.01 kcal/mol.

Take TAAGTCACGTGCGGTT: the “relative binding free energy” value was 0 kcal/mol. The same measure for TAGTGCACGTGTGGGA: 0.05 kcal/mol. The same measure for TTAGGCACGTGGATGG: -0.16 kcal/mol. The same measure for AAGATCACGTGTTGGC: 0.29 kcal/mol. In the case of TGTGACACGTGAAACG, the “relative binding free energy” value was determined as 0.26 kcal/mol. For AGGGTCACGTGAAGGT, the “relative binding free energy” value is 0.3 kcal/mol. The result for CTGTACACGTGTTGGA reads 0.05 kcal/mol; that for TAGATCACGTGGGAAT, -0.08 kcal/mol. The result for ATTTACACGTGCTGGA reads 0.22 kcal/mol. The result for GGTGCCACGTGTTGTG reads 0.01 kcal/mol.

In the case of TTATTCACGTGAGTGC, the “relative binding free energy” value worked out at 0.29 kcal/mol. For GGTTTCACGTGGTTAT, the “relative binding free energy” value turned out to be 0.33 kcal/mol. The same measure for GTTCCCACGTGTGTGT: 0.01 kcal/mol; for TTGGTCACGTGTCCTT: 0.19 kcal/mol; for GGTTCCACGTGTAATT: 0.3 kcal/mol. On to CATTGCACGTGTTGGT, for which the “relative binding free energy” value was -0.02 kcal/mol. Regarding GGCTCCACGTGGTTTG, the “relative binding free energy” value worked out at 0.21 kcal/mol. The result for TGACGCACGTGTAGTT reads -0.03 kcal/mol.

For the sequence CTGTTCACGTGGAGAG, the “relative binding free energy” value was found to be 0.28 kcal/mol. The same measure for ATTTGCACGTGCTATT: -0.06 kcal/mol. The result for TGAGTCACGTGAGGAG reads 0.36 kcal/mol; that for AAATACACGTGGGGGT, -0.02 kcal/mol; that for TTGATCACGTGGTGCA, -0.01 kcal/mol.

Take GGCGCCACGTGGGCGG: the “relative binding free energy” value was -0.25 kcal/mol. The result for CGTGTCACGTGTGAGG reads 0.16 kcal/mol. The same measure for CATTTCACGTGTGTTG: 0.21 kcal/mol. The result for TCTTTCACGTGGATTA reads 0.16 kcal/mol; that for CGATGCACGTGTGGAT, 0.06 kcal/mol; that for GGGTCCACGTGGAGTT, 0.11 kcal/mol. Take TATTTCACGTGATTGA: the “relative binding free energy” value turned out to be 0.18 kcal/mol. The result for TGTGTCACGTGGAGGC reads -0.01 kcal/mol; that for TTGGTCACGTGGTCAA, -0.04 kcal/mol. The same measure for TGGGACACGTGATGAG: 0.12 kcal/mol. The result for ATGTCCACGTGGAAGG reads 0.12 kcal/mol; that for TGTGGCACGTGGTAGG, -0.06 kcal/mol; that for TAGCGCACGTGTTAGG, -0.06 kcal/mol. With TCTAGCACGTGTCGGT, the “relative binding free energy” value is -0.08 kcal/mol.

Regarding AGCTTCACGTGTACGG, the “relative binding free energy” value stood at 0.35 kcal/mol. For the sequence GTTGGCACGTGTATGT, the “relative binding free energy” value is 0 kcal/mol. The result for AGGGTCACGTGGTGCG reads -0.04 kcal/mol.

With TAGCACACGTGGTCGG, the “relative binding free energy” value worked out at 0.01 kcal/mol. As for ACGGGCACGTGAGTGT, the “relative binding free energy” value is 0.16 kcal/mol. As for CGTTACACGTGGTGTC, the “relative binding free energy” value turned out to be 0.08 kcal/mol.

With GGCATCACGTGGTGCG, the “relative binding free energy” value came out at 0.34 kcal/mol. For the sequence GGAGGCACGTGGAACG, the “relative binding free energy” value is -0.13 kcal/mol.

In the case of ATGGGCACGTGTCCAG, the “relative binding free energy” value came out at 0.05 kcal/mol.

Regarding ATTAGCACGTGATGGT, the “relative binding free energy” value is 0.05 kcal/mol.

Turning to GTGGACACGTGGATTG, the “relative binding free energy” value was 0.01 kcal/mol. The same measure for TGAGGCACGTGTATAT: -0.09 kcal/mol. The result for TATTGCACGTGTGAGC reads 0.01 kcal/mol; that for GCAGGCACGTGGAAGT, 0 kcal/mol. The same measure for CAGACCACGTGTGGGG: 0.03 kcal/mol. As to TGGTTCACGTGTATTA, the “relative binding free energy” value is 0.16 kcal/mol. The result for ACGTTCACGTGTGGCG reads 0.24 kcal/mol. As to TCAGACACGTGGGGGT, the “relative binding free energy” value is 0 kcal/mol. Regarding ATATTCACGTGGAGTA, the “relative binding free energy” value was 0.25 kcal/mol.

For CTAGTCACGTGTTGTG, the “relative binding free energy” value was -0.09 kcal/mol.

For the sequence AGGGTCACGTGAATAG, the “relative binding free energy” value was determined as 0.38 kcal/mol. The result for TAGGACACGTGTGCTG reads 0.15 kcal/mol; that for ATATTCACGTGCTGGT, 0.13 kcal/mol; that for TGTCCCACGTGGGTGA, -0.21 kcal/mol. The result for TGCTTCACGTGTATTA reads 0.01 kcal/mol.

Take TGTAACACGTGGTTGG: the “relative binding free energy” value was -0.01 kcal/mol. The result for GGTGTCACGTGGTAAG reads -0.01 kcal/mol. The same measure for TGGCGCACGTGATGGC: 0.04 kcal/mol; for GGCGTCACGTGTGGCA: 0.13 kcal/mol. The same measure for ATTCTCACGTGTGAGG: 0.26 kcal/mol; for GTGGTCACGTGTGATT: 0.18 kcal/mol.

In the case of AAGGTCACGTGGGATT, the “relative binding free energy” value was 0.25 kcal/mol.

For the sequence ATTAGCACGTGATTGA, the “relative binding free energy” value was 0.06 kcal/mol.

With CGGGGCACGTGGTGGC, the “relative binding free energy” value was -0.23 kcal/mol. The same measure for GAGTTCACGTGGCGGG: 0.35 kcal/mol. The result for TGAACCACGTGGGGCG reads -0.12 kcal/mol; that for ATGAGCACGTGGTGGC, -0.12 kcal/mol; that for AACTGCACGTGTGGGA, 0.03 kcal/mol. The result for TTTTGCACGTGGCTGG reads -0.08 kcal/mol; that for TGGGACACGTGGGTAA, 0.02 kcal/mol; that for TGTTTCACGTGGGATG, 0.24 kcal/mol. Turning to GTATGCACGTGGGCGA, the “relative binding free energy” value was -0.2 kcal/mol. The result for ATGCACACGTGTTATG reads 0.14 kcal/mol; that for TGGTTCACGTGAATAT, 0.3 kcal/mol; that for GGTTGCACGTGTATCT, -0.09 kcal/mol. The same measure for TTGTGCACGTGATAGC: 0.09 kcal/mol. The same measure for GTTGTCACGTGACCGG: 0.23 kcal/mol.

For the sequence TGATACACGTGGTTTC, the “relative binding free energy” value is -0.03 kcal/mol. The same measure for AGGCACACGTGGGATG: -0.03 kcal/mol.
